Source: PubChem BioAssay (NCATS)
Values joined by “and” are separate entries in the source; they are usually repeats but may differ in a detail not shown here. Identical values can stand only once. This list was built around the results that the source calls inconclusive (neither active nor inactive); the mix of calls is not that of the screen. Potencies of inconclusive entries are doubtful fits and often do not repeat. Active and inactive are the calls of the source. The call rests on the fitted dose curve; in most records, active means well fitted curve in the direction sought with a large enough effect; inconclusive means small, poorly fitted or top-dose-only effect, or another doubt; inactive means no such curve, though single readings can be large; an effect the other way counts as inactive or inconclusive.

Tests used:
[1] = qHTS of pediatric cancer cell lines to identify multiple opportunities for drug repurposing: Primary screen for DAOY cells (AID 1347090); settings: DAOY medulloblastoma viability, CellTiter-Glo luminescence, 48 h; activity change, negative = cytotoxic: at 46 µM (top of the series); further: nearly all actives have a fitted effect of over 55% in size
In short: (§1)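 Viability measured as metabolically active cells via CellTiter-Glo luminescence following 48 hours of compound exposure, 11-point dilutions in confirmatory testing. 500-1,000 cells/well plated 5 hours before dosing; controls were DMSO and 2.3 µM bortezomib.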

[2] = qHTS of pediatric cancer cell lines to identify multiple opportunities for drug repurposing: Primary screen for SJ-GBM2 cells (AID 1347091)
In short: as §1

[3] = qHTS of pediatric cancer cell lines to identify multiple opportunities for drug repurposing: Primary screen for A673 cells (AID 1347092); settings: A673 Ewing sarcoma viability, CellTiter-Glo ATP luminescence, 48 h; activity change, negative = cytotoxic: at 46 µM (top of the series); further: nearly all actives have a fitted effect of over 45% in size
In short: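 Titration-based qHTS on A673 cells: MIPE compounds spanned 11 points (0.78 nM to 46 µM final), NPC compounds 8 points (0.59 nM to 46 µM final). Viability after 48 h was measured by ATP luminescence.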

[4] = qHTS of pediatric cancer cell lines to identify multiple opportunities for drug repurposing: Primary screen for SK-N-MC cells (AID 1347093); settings: SK-N-MC viability, CellTiter-Glo luminescence, 48 h; activity change, negative = cytotoxic: at 46 µM (top of the series)
In short: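 Metabolically active cells were quantified by ATP-dependent luminescence (CellTiter-Glo, 15 min at room temperature) following 48 h treatment. Cells had been plated at 500-1,000 per well and settled for 5 h beforehand.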

[5] = qHTS of pediatric cancer cell lines to identify multiple opportunities for drug repurposing: Primary screen for BT-37 cells (AID 1347094)
In short: (§2)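 Cells plated at 500-1,000/well in growth medium, compounds added after 5 h. MIPE tested at 11 points (from 0.78 nM), NPC at 8 points (from 0.59 nM). CellTiter-Glo luminescence after 48 h; concentration-response curves from primary screen.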

[6] = qHTS of pediatric cancer cell lines to identify multiple opportunities for drug repurposing: Primary screen for Saos-2 cells (AID 1347097); further: nearly all actives have a fitted effect of over 40% in size
In short: as §2

[7] = qHTS of pediatric cancer cell lines to identify multiple opportunities for drug repurposing: Primary screen for BT-12 cells (AID 1347101); further: nearly all actives have a fitted effect of over 25% in size
In short: (§3)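 Cells (500-1,000/well) rested 5 h, then received compounds for 48 h; metabolically active cells were measured by CellTiter-Glo luminescence. Final concentrations spanned up to 46 µM (MIPE, 11-point) or 0.59 nM-46 µM (NPC, 8-point) in primary screens, 11-point in follow-ups.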

[8] = qHTS of pediatric cancer cell lines to identify multiple opportunities for drug repurposing: Primary screen for RD cells (AID 1347104); further: nearly all actives have a fitted effect of over 55% in size
In short: as §2

[9] = qHTS of pediatric cancer cell lines to identify multiple opportunities for drug repurposing: Primary screen for control Hh wild type fibroblast cells (AID 1347106); further: nearly all actives have a fitted effect of over 55% in size
In short: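 Cells (500-1,000/well) in growth media were settled 5 h at 37 degrees C, then given compounds for 48 h. Viability was read as CellTiter-Glo luminescence. Primary runs used MIPE at 11 points (0.78 nM-46 µM) and NPC at 8 points (0.59 nM-46 µM); follow-ups used 11 points.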

[10] = qHTS of pediatric cancer cell lines to identify multiple opportunities for drug repurposing: Primary screen for Rh30 cells (AID 1347107); further: nearly all actives have a fitted effect of over 75% in size
In short: (§4)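 Viability after 48 h compound treatment at 37C, 500-1,000 cells/well, read as ATP luminescence with CellTiter-Glo. Primary screens used 11-point (MIPE, 0.78 nM-46 µM) or 8-point (NPC, 0.59 nM-46 µM) final concentrations; follow-up screens used 11-point dilutions.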

[11] = qHTS of pediatric cancer cell lines to identify multiple opportunities for drug repurposing: Primary screen for Rh41 cells (AID 1347108); further: nearly all actives have a fitted effect of over 70% in size
In short: as §2

[12] = qHTS of pediatric cancer cell lines to identify multiple opportunities for drug repurposing: Primary screen for NB-EBc1 cells (AID 1347095)
In short: as §2

[13] = qHTS of pediatric cancer cell lines to identify multiple opportunities for drug repurposing: Primary screen for U-2 OS cells (AID 1347096); further: nearly all actives have a fitted effect of over 50% in size
In short: as §4

[14] = qHTS of pediatric cancer cell lines to identify multiple opportunities for drug repurposing: Primary screen for SK-N-SH cells (AID 1347098); further: nearly all actives have a fitted effect of over 65% in size
In short: as §3

[15] = qHTS of pediatric cancer cell lines to identify multiple opportunities for drug repurposing: Primary screen for NB1643 cells (AID 1347099); further: nearly all actives have a fitted effect of over 50% in size
In short: as §2

[16] = qHTS of pediatric cancer cell lines to identify multiple opportunities for drug repurposing: Primary screen for LAN-5 cells (AID 1347100); settings: LAN-5 neuroblastoma viability, CellTiter-Glo luminescence, 48 h; activity change, negative = cytotoxic: at 46 µM (top of the series)
In short: as §4

[17] = qHTS of pediatric cancer cell lines to identify multiple opportunities for drug repurposing: Primary screen for OHS-50 cells (AID 1347103); further: nearly all actives have a fitted effect of over 40% in size
In short: as §3

[18] = qHTS of pediatric cancer cell lines to identify multiple opportunities for drug repurposing: Primary screen for MG 63 (6-TG R) cells (AID 1347105); settings: MG 63 (6-TG R) viability, CellTiter-Glo, 48 h; activity change, negative = cytotoxic: at 46 µM (top of the series); further: nearly all actives have a fitted effect of over 50% in size
In short: as §2

[19] = qHTS of pediatric cancer cell lines to identify multiple opportunities for drug repurposing: Primary screen for Rh18 cells (AID 1347102); further: nearly all actives have a fitted effect of over 65% in size
In short: as §4

[20] = qHTS of pediatric cancer cell lines to identify multiple opportunities for drug repurposing: Confirmatory screen for NB1643 cells (AID 1347109); settings: NB1643 neuroblastoma cell viability; activity change, negative = cytotoxic: at 45.9 µM (top of the series); further: nearly all actives have a fitted effect of over 45% in size
In short: as §4
Potency means the concentration at half of the fitted maximal effect; tags describe the fitted curve by direction and shape.

Row | Compound | Potency [1] | Potency [2] | Potency [3] | Potency [4] | Potency [5] | Potency [6] | Potency [7] | Potency [8] | Potency [9] | Potency [10] | Potency [11] | Potency [12] | Potency [13] | Potency [14] | Potency [15] | Potency [16] | Potency [17] | Potency [18] | Potency [19] | Potency [20]
1 | Nc1nc(F)nc2c1ncn2[C@@H]1O[C@H](CO)[C@@H](O)[C@@H]1O | inconclusive: 0.0335 µM [cytotoxic, full curve] | inconclusive: 0.531 µM [cytotoxic, full curve] | inconclusive: 26.6 µM [cytotoxic, single point] | active: 33.5 nM and active: 332 nM | inconclusive: 38.9 µM [cytotoxic, single point] and active: 863 nM | active: 150 nM and active: 935 nM | inconclusive: 38.9 µM [cytotoxic, partial curve, poor fit] | inconclusive: 0.168 µM [cytotoxic, full curve] | inconclusive: 0.332 µM [cytotoxic, full curve] | inconclusive: 2.96 µM [cytotoxic, full curve] | inconclusive: 2.11 µM [cytotoxic, partial curve, poor fit] | – | – | – | – | – | – | – | – | –
2 | O=C(O)c1ccc(O)c2ncc(N3CCOCC3)cc12 | inconclusive: 23.5 µM [cytotoxic, single point] | inconclusive: 16.6 µM [cytotoxic, partial curve] | inconclusive: 23.5 µM [cytotoxic, single point] | – | – | active: 23.5 µM | inconclusive: 34.3 µM [cytotoxic, single point] | inconclusive: 29.6 µM [cytotoxic, single point] | inconclusive: 20.9 µM [cytotoxic, single point] | inconclusive: 20.9 µM [cytotoxic, partial curve] | – | active: 20.9 µM | inconclusive: 18.7 µM [cytotoxic, partial curve, poor fit] | active: 30.4 µM | active: 23.5 µM | inconclusive: 26.4 µM [cytotoxic, single point] | active: 24.3 µM | inconclusive: 37.2 µM [cytotoxic, single point] | – | –
3 | COc1c(Cl)cc2c([nH]c3cnccc32)c1NC(=O)c1cccnc1C | inconclusive: 1.18 µM [cytotoxic, full curve] | inconclusive: 14.8 µM [cytotoxic, partial curve] | active: 0.469 µM | – | inconclusive: 3.43 µM [cytotoxic, full curve] | inconclusive: 11.8 µM [cytotoxic, partial curve] | inconclusive: 1.22 µM [cytotoxic, partial curve, poor fit] | inconclusive: 2.09 µM [cytotoxic, full curve, poor fit] | – | – | inconclusive: 13.2 µM [cytotoxic, partial curve] | – | – | inconclusive: 24.1 µM [cytotoxic, partial curve] | inconclusive: 6.62 µM [cytotoxic, partial curve] | – | inconclusive: 3.43 µM [cytotoxic, full curve] | inconclusive: 18.7 µM [cytotoxic, partial curve, poor fit] | inconclusive: 8.33 µM [cytotoxic, partial curve] | –
4 | CCCS(=O)(=O)Nc1ccc(F)c(C(=O)c2c[nH]c3ncc(-c4ccc(Cl)cc4)cc23)c1F | active: 18.7 µM | active: 18.7 µM | active: 9.35 µM | – | inconclusive: 21.7 µM [cytotoxic, partial curve] | inconclusive: 13.2 µM [cytotoxic, partial curve] | inconclusive: 24.3 µM [cytotoxic, partial curve] | – | inconclusive: 1.05 µM [cytotoxic, full curve, poor fit] | inconclusive: 18.7 µM [cytotoxic, partial curve] | inconclusive: 23.5 µM [cytotoxic, single point] | inconclusive: 37.2 µM [cytotoxic, single point] | inconclusive: 18.7 µM [cytotoxic, partial curve, poor fit] | – | active: 3.32 µM | – | active: 6.85 µM | active: 14.8 µM | inconclusive: 16.6 µM [cytotoxic, partial curve] | inconclusive: 23.3 µM [cytotoxic, partial curve]
5 | c1ccc(-c2oc3ncnc(NC[C@@H]4CCCO4)c3c2-c2ccccc2)cc1 | inconclusive: 23.5 µM [cytotoxic, single point] | inconclusive: 26.4 µM [cytotoxic, single point] | – | inconclusive: 1.05 µM [cytotoxic, full curve, poor fit] | inconclusive: 27.3 µM [cytotoxic, partial curve] | active: 29.6 µM | inconclusive: 30.6 µM [cytotoxic, partial curve] | – | – | active: 18.7 µM | active: 18.7 µM | inconclusive: 37.2 µM [cytotoxic, partial curve, poor fit] | – | active: 24.1 µM | – | – | active: 27.3 µM | inconclusive: 29.6 µM [cytotoxic, single point] | inconclusive: 20.9 µM [cytotoxic, partial curve] | –
6 | c1nc2nc(Nc3ccc(N4CCOCC4)cc3)nc(NC3CCCCC3)c2[nH]1 | active: 18.7 µM | active: 1.48 µM | active: 4.69 µM | active: 0.935 µM | active: 21.7 µM | active: 4.69 µM | – | active: 13.2 µM | – | active: 11.8 µM | active: 5.9 µM | active: 3.72 µM | – | – | – | active: 0.469 µM | – | – | active: 9.35 µM | –
7 | COc1cc2nc(N3CCN(C(=O)C4COc5ccccc5O4)CC3)nc(N)c2cc1OC (centres undefined) | inconclusive: 18.7 µM [cytotoxic, single point] | inconclusive: 15 µM [cytotoxic, single point] and inconclusive: 23.5 µM [cytotoxic, single point] | inconclusive: 33.5 µM [cytotoxic, single point] | inconclusive: 33.5 µM [cytotoxic, single point] | inconclusive: 21.9 µM [cytotoxic, single point] and inconclusive: 21.7 µM [cytotoxic, partial curve] | inconclusive: 33.5 µM [cytotoxic, single point] and inconclusive: 29.6 µM [cytotoxic, single point] | inconclusive: 15.5 µM [cytotoxic, partial curve, poor fit] and inconclusive: 27.3 µM [cytotoxic, single point] | inconclusive: 29.9 µM [cytotoxic, single point] and inconclusive: 23.5 nM [cytotoxic, full curve, poor fit] | – | inconclusive: 18.7 µM [cytotoxic, single point] | – | inconclusive: 20.9 µM [cytotoxic, partial curve] | inconclusive: 23.5 µM [cytotoxic, single point] | inconclusive: 38.6 µM [cytotoxic, single point] | – | inconclusive: 20.9 µM [cytotoxic, partial curve] | active: 24.6 µM and inconclusive: 34.3 µM [cytotoxic, single point] | inconclusive: 18.7 µM [cytotoxic, single point] | inconclusive: 16.8 µM [cytotoxic, partial curve] and active: 26.4 µM | –
8 | O=C1CN2Cc3c(ccc(Cl)c3Cl)N=C2N1 | inconclusive: 29.6 µM [cytotoxic, single point] | inconclusive: 7.43 µM [cytotoxic, partial curve] | inconclusive: 29.6 µM [cytotoxic, single point] | – | inconclusive: 30.6 µM [cytotoxic, single point] | inactive | inconclusive: 24.3 µM [cytotoxic, partial curve] | inconclusive: 29.6 µM [cytotoxic, single point] | – | – | inconclusive: 18.7 µM [cytotoxic, partial curve] | inconclusive: 16.6 µM [cytotoxic, partial curve] | – | inconclusive: 38.3 µM [cytotoxic, single point] | inactive | inconclusive: 14.8 µM [cytotoxic, partial curve] | – | – | inconclusive: 18.7 µM [cytotoxic, partial curve] | –
